Part of at least one peptide drawing is inferred or uncertain, most often the ends. Marks after values point to notes of the source that are not given here. Residues, ends and D or L forms follow the SMILES beside them. No end group written: not given here. *: point of attachment. Biotin = O=C1N[C@H]2[C@H](CS[C@H]2CCCCC(=O)*)N1
Experiments:
[1] = system: chemokine receptors on THP-1 cells; experiment: Binding to chemokine receptors on THP-1 cells; design: species or system human
[2] = system: RANTES induced THP-1 migration; experiment: THP-1 trans-well migration assay, RANTES as chemoattractant; assay type: cell-based, human; conditions: tripeptide at 100 µM, dash = no statistically significant reduction
[3] = system: MCP-1 induced THP-1 migration; experiment: THP-1 trans-well migration assay, MCP-1 as chemoattractant; assay type: cell-based, human; conditions: inhibition of THP-1 migration; n.s./ns = not statistically significant
Procedure: (§1) To determine whether an agent inhibits a chemokine-induced activity, such as macrophage recruitment, varying amounts of the agent are mixed with cells in the presence of a known chemoattractant. For example, a range of known concentrations of an agent, e.g., a chemokine peptide, is incubated with a defined number (e.g., 10^4 - […]) of human THP-1 monocyte cells in individual wells of the top compartment of a trans-well plate. Chemokine (such as MCP-1, MIP1α, IL8 or SDF-1α), at a concentration known to cause significant migration of THP-1 cells in the trans-well migration assay, is placed in the lower compartment (Figure 1). Cells are then incubated at 37°C for a period sufficient to allow migration, e.g., 4 hours. After incubation, the cells are gently removed from the top of the filter with a pipette, 20 µl of 20 mM EDTA in simple PBS is added into each top well, and incubated for 20 minutes at 4°C. The filter is carefully flushed with media using a gentle flow, and removed. A standard curve consisting of a two-fold dilution series of THP-1 cells (in 29 µl) is prepared to accurately quantify the number of cells that have migrated. Migrated cells are stained with 3 µl of MTT stock dye solution which is added directly into each well (5 mg/ml in RPMI-1640 without phenol red, Sigma Chemical Co.) and incubated at 37°C for 4 hours. The media is carefully aspirated from each well, and the converted dye is solubilized by 20 µl of DMSO. Absorbance of converted dye is measured at a wavelength of 595 nm using an ELISA plate reader. The number of migrated cells in each well is then determined by interpolation of the standard curve (see also Imai et al.,J. Biol. Chem., 272, 15036 (1997)).
Any method suitable for counting cells can be used, for example, counting with a hemocytometer, incubation of the cells with MTT (see above), or FACS analysis. A negative control assay is also performed, using TGF-β or another non-chemokine chemoattractant (e.g., IL1β or TNFα). To assess whether the agent is cytotoxic, the same concentrations of agent are incubated with THP-1 cells. Agents which 1) are not cytotoxic at levels which inhibit migration, 2) are ineffective at inhibiting the negative control-induced migration, and 3) reduce or inhibit chemokine-induced THP-1 migration, are agents which fall within the scope of the invention.
For this assay, THP-1 cells were maintained at a density of 4 × 10^5 cells per ml in RPMI-1640 supplemented with 10% fetal calf serum + 20 µM 2-mercaptoethanol. Chemotaxis was induced in a 96-well disposable chemotaxis chamber fitted with a 5 µM polycarbonate filter (PVP free, ChemoTX, Neuroprobe Inc., Cabin John). […] The framed filter was aligned with the holes in the corner of the filter frame and placed over the wells.
(§2) Five × 10^4 THP-1 cells in 25 µl of RPMI-1640 were added to the upper compartment. Peptides were dissolved in Milli Q water and then serially diluted in culture medium. In most cases, the serially diluted peptides were added to the upper compartment of the chemotaxis chamber. The chamber was incubated at 37°C in a humidified atmosphere of 5% CO2 for 4 hours.
After incubation, the cells were gently removed from the top of the filter with a pipette, 20 µl of 20 mM EDTA in PBS was added into each top well, and the mixture was incubated for 20 minutes at 4°C. The filter was then carefully flushed with media using a gentle flow, and removed. A standard curve was prepared to accurately quantify the number of THP-1 cells that had migrated. The curve was based on a two-fold dilution series of THP-1 cells (top standard 100,000 cells in 29 µl). Cells which had migrated, and in separate wells, the cells in the standards, were stained with 3 µl of MTT stock solution which was added directly into each well (5 mg/ml in RPMI 1640 without phenol red, Sigma Chemical Co.) and incubated at 37°C for 4 hours. The media was carefully aspirated from each well, and the converted dye was solubilized by 20 µl of DMSO. […]

[4] = system: MIP1α induced THP-1 migration; experiment: THP-1 trans-well migration assay, MIP1α as chemoattractant; assay type: cell-based, human; conditions: inhibition of THP-1 migration; n.s./ns = not statistically significant
Procedure: as §1
(§3) For this assay, THP-1 cells were maintained at a density of 4 × 10^5 cells per ml in RPMI-1640 supplemented with 10% fetal calf serum + 20 µM 2-mercaptoethanol. Chemotaxis was induced in a 96-well disposable chemotaxis chamber fitted with a 5 µM polycarbonate filter (PVP free, ChemoTX, Neuroprobe Inc., Cabin John). Twenty-nine µl of chemoattractant (recombinant human chemokine; 50 ng/ml, i.e., 5.9 nM) or control (100 ng/ml TGFβ) was added to the lower compartment of each well. The framed filter was aligned with the holes in the corner of the filter frame and placed over the wells.
as §2
(§4) After incubation, the cells were gently removed from the top of the filter with a pipette, 20 µl of 20 mM EDTA in PBS was added into each top well, and the mixture was incubated for 20 minutes at 4°C. The filter was then carefully flushed with media using a gentle flow, and removed. A standard curve was prepared to accurately quantify the number of THP-1 cells that had migrated. The curve was based on a two-fold dilution series of THP-1 cells (top standard 100,000 cells in 29 µl). Cells which had migrated, and in separate wells, the cells in the standards, were stained with 3 µl of MTT stock solution which was added directly into each well (5 mg/ml in RPMI 1640 without phenol red, Sigma Chemical Co.) and incubated at 37°C for 4 hours. The media was carefully aspirated from each well, and the converted dye was solubilized by 20 µl of DMSO. Absorbance of converted dye was measured at a wavelength of 595 nm using an ELISA plate reader. The number of cells that had migrated in each well was determined by interpolation of the standard curve.
(§5) To investigate the receptor specificity of peptide 3 inhibition, the ED50 was determined for peptide 3(1-12)[MCP-1] (SEQ ID NO:1) inhibition of THP-1 migration induced by chemokines which signal through different receptors than MCP-1 receptors. […]

[5] = system: SDF-1α induced THP-1 migration; experiment: THP-1 trans-well migration assay, SDF-1α as chemoattractant; assay type: cell-based, human; conditions: inhibition of THP-1 migration; n.s./ns = not statistically significant
Procedure: as §1, §3, §2, §4, §5

HIV = assay type: cell-based; conditions: ns = not significant

Question: How did the “estimated ka for binding to THP-1 cells (column AVERAGE ED50, peptide 2 family)” value [1] turn out when ELRVIESGPHCANTEI [Pep2[IL8]] was run?
Answer: 1-10^e µM

Question: How did the “association constant (ka) for binding to THP-1 cells” value [1] turn out when `CC[C@H](C)[C@H](NC(=O)[C@H](CCC(=O)O)NC(=O)CCCC[C@@H]1SC[C@@H]2NC(=O)N[C@@H]21)C(=O)N[C@@H](CS)C(=O)N[C@@H](C)C(=O)N[C@@H](CC(=O)O)C(=O)N1CCC[C@H]1C(=O)N[C@@H](CCCCN)C(=O)N[C@@H](CCC(N)=O)C(=O)N[C@@H](CCCCN)C(=O)N[C@@H](Cc1c[nH]c2ccccc12)C(=O)N[C@H](C(=O)N[C@@H](CCC(N)=O)C(=O)O)C(C)C` (Biotin-EICADPKQKWVQ-OH) was run?
Answer: about 10 µM

Question: Which “% inhibition at 100 µM versus RANTES” value [2] does the source give for `N[C@@H](CO)C(=O)N[C@@H](CCC(=O)O)C(=O)N[C@@H](CO)C(=O)O` [SES] (H-Ser-Glu-Ser-OH) here?
Answer: 87 ± 4%

Question: With SYRRI [SYRRI] as the compound, how does the “ED50 (µM) versus MCP-1” value [3] read?
Answer: ns

Question: And the “ED50 (µM) versus MIP1α” value [4]?
Answer: ns

Question: And the “ED50 (µM) versus SDF-1α” value [5]?
Answer: ns

Question: What about the “% virus inhibition” value (HIV) of the same compound?
Answer: ns
